Paper PMC4336329 (PLoS ONE, 2015)
The campaign covered roughly 310,000 compounds. About 14,000 (4.5%) showed an effect of 50% or more. Effects have a minus sign here. The list shows a part of the results.

Molecular target: human ether-à-go-go-related gene (hERG) potassium channel (human, UniProt Q12809)
Assay: primary screen, population patch clamp on CHO cells stably expressing hERG
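Further: peak tail current of the secondary pulse compared with the same well before compound.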

human ether-à-go-go-related gene (hERG) potassium channel, sequence (Q12809 whole entry, looked up): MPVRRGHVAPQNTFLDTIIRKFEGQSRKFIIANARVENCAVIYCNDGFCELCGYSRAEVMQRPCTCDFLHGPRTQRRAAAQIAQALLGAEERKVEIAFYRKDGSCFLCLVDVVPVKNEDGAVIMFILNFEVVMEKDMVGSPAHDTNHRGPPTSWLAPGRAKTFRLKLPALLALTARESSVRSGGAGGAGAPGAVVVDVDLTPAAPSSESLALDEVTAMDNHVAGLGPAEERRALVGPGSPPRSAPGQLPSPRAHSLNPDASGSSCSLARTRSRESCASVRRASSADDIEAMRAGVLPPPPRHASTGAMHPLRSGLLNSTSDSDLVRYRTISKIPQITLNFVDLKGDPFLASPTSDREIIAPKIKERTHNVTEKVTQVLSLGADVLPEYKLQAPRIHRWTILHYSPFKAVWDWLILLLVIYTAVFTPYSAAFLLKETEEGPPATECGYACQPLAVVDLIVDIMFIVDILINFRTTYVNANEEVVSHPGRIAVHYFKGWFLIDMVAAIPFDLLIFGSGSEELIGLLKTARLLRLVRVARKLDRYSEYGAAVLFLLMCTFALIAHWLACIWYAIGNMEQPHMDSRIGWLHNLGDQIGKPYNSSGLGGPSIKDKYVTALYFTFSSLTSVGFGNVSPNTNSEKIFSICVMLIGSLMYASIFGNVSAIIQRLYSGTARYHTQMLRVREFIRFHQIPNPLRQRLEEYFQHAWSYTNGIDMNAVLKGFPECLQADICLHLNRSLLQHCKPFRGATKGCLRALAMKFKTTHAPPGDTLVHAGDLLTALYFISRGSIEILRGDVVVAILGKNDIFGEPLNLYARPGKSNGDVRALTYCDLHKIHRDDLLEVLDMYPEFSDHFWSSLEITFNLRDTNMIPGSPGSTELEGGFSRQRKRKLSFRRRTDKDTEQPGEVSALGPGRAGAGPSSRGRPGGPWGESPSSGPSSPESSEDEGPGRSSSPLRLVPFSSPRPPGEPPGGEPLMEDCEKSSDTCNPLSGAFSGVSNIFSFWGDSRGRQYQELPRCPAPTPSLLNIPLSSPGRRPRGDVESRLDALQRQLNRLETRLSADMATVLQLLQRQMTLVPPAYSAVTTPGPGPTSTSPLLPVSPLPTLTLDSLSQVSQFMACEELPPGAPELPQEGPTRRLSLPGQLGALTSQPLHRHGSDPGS

| SMILES | hERG current change (%, negative = inhibition) at 10uM [%] |
| --- | --- |
| Cc1cc(N2CCCC2=O)ccc1S(=O)(=O)NC1CCCCC1 | 2.14 |
| c1ccc(COCC2CCNCC2)cc1 | 23.6 |
| COc1cccc(C2=NOC(C(=O)Nc3cccnc3Cl)C2)c1OC (stereo not drawn) | 12.9 |
| COc1ccc([N+](=O)[O-])c(S(=O)(=O)c2ccccc2)n1 | 7.93 |
| CSc1cccc(NC(=O)C2CCN(C(=O)c3ccccc3C)CC2)c1 | -18.7 |
| COc1ccc(-c2csc(NC(=O)Nc3ccccc3)n2)cc1 | 17.8 |
| CCOC(=O)C(O)(CC(=O)c1ccc(Cl)cc1)C(=O)OCC | -3.44 |
| O=C(CCCn1c(=S)[nH]c2ccsc2c1=O)NCCc1ccccc1 | 4.05 |
| O=C(NCc1ccco1)C(NS(=O)(=O)c1cccc2nsnc12)c1ccccc1 (stereo not drawn) | -14.5 |
| COc1ccccc1NC(=O)Cn1c2ccc(F)cc2c2nc3n(c(=O)c21)CCS3 | -12.6 |
| O=C1CC(Sc2ccc(Cl)cc2)C(=O)N1c1ccc2c(c1)OCCO2 (stereo not drawn) | 1.43 |
| O=C(CCN1C(=O)/C(=C/c2ccc(Cl)cc2)SC1=S)NC1C=CS(=O)(=O)C1 (stereo not drawn) | 16.3 |
| COc1ccc(NC(=O)CN2C(=O)NC3(CCCC3)C2=O)cc1OC | 22.8 |
| CCCSc1ccc(-c2nn(-c3ccccc3)cc2/C=C(/C#N)C(=O)NCCCOC)cc1 | 5.33 |
| O=C(c1ccc(-c2ccccc2)c(F)c1)C1CCCN(CCCn2cccn2)C1 (stereo not drawn) | -69.6 |
| O=C(CN1CCN(c2ncccn2)CC1)NCc1ccc2c(c1)OCO2 | 20.4 |
| Cc1cccc(OCc2nc(-c3ccc(-n4cccc4)cc3)no2)c1 | 12.2 |
| CN1CCN(C2=Cc3ccccc3Sc3cc(F)c(F)cc32)CC1.CS(=O)(=O)O | -22.5 |
| CCOC(=O)N1CCN(CC(=O)N2c3ccccc3Sc3ccccc32)CC1.O=C(O)C(=O)O | 2.33 |
| CC(=O)c1cccc(OC(=O)c2cc(S(=O)(=O)N3CCOCC3)ccc2N2CCCC2)c1 | -28.4 |
| CCN(c1ccccc1)S(=O)(=O)c1ccc(C(=O)Nc2nnc(C3CC3)o2)cc1 | -3.31 |
| CC(=O)c1c(C)nc(Nc2nc(C)c3cc(C)ccc3n2)nc1C | 10.6 |
| O=C(Nc1nc(-c2cccs2)cs1)c1ccco1 | -6.94 |
| COc1ccc(C(=O)Nc2c(N)nc(SCC(=O)NCC3CCCO3)[nH]c2=O)cc1OC (stereo not drawn) | -21.4 |
